± gives the standard deviation of the averaged measurements. The list shows a part of the results.
Tested on: PfAP2-G AP2 domain (GST-tagged)
Assay: gcPBM binding intensity (ln(normalized median fluorescence intensity)); higher = stronger DNA binding
How it was run: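 An Agilent 4 × 180k array of primer-extended double-stranded 36-bp intergenic genomic probes, with negative controls, was incubated for 1 h with GST-tagged P. falciparum DNA-binding domains expressed in E. coli. Alexa488 anti-GST antibody detected bound protein, scanned at 488 nm. Binding intensity is the highest Masliner-normalised natural-log median intensity across replicate spots of either probe orientation.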

| Sequence | gcPBM binding intensity (ln) |
| --- | --- |
| ATATTTTTTGGAAAGTGTACAATATTATATATTAAA [XGTACX_site2163] | 11.2 ± 0.75 |
| ATCATATGTATGCATACACACAAAAAGTTATTTATA [CACACA_site6325] | 9.96 ± 0.13 |
| GAAAATCAGTTAAACACACACATAAAAAAAAAAAAA [CACACA_site2875] | 9.84 ± 0.4 |
| TATTTTTCTTTTTTTTTTTTTTTTATATTATACGTG [XGTACX_negctrl_site363] | 9.71 ± 0.014 |
| CTTTTTAAATTAAAATGTACAGAAAAATATTATTAT [XGTACX_site8760] | 10.9 ± 0.59 |
| CATATAAAAAAATAGACACACATTTTATATAATACG [CACACA_site1896] | 10.14 ± 0.014 |
| TATTTGTAAATCGATACACACATATATCTTAATATA [CACACA_site4273] | 9.835 ± 0.035 |
| CGGCACGTGATATATACACACATATAGATATATACA [CACACA_site6408] | 9.805 ± 0.035 |
| TGGATAATGAATGATGCACACTAAAAATATTCTACA [CACACA_site5912] | 9.94 ± 0.028 |
| CTTTTTTCAAGACACACACACAAGAAAATATAAATA [CACACA_site7455] | 10.4 ± 0.28 |
| TGTTAATTGAATGCAATCTGAATTTTTTTACATAAT [CACACA_negctrl_site1002] | 9.65 ± 0.057 |
| CACCCACCCAGACACACACACACAAAAAAAAAAAGA [CACACA_site499] | 10.4 ± 0.42 |
| ATATATACTATATTTTAACACACAAAAAAAAAAAAT [CACACA_site8277] | 10 ± 0.23 |
| CTCAATATTATTACTACACACAAATTAATATTTTCC [CACACA_site55] | 9.93 ± 0.14 |
| TCACATGGAAAAAAGTGTACATAATTATGTATAAAT [XGTACX_site2827] | 11.5 ± 0.82 |
| TATAAAAAATAAAAAGTTTAATGAATATTTCTTTTA [TGCATGCA_negctrl_site379] | 9.44 ± 0.057 |
| TTACAAGTAAAAGGTACACACATTATATATACAAAT [CACACA_site8290] | 11.3 ± 1 |
| TAATTTTTATTTTATTTTATTTTTTTTTTTTTTATT [CACACA_negctrl_site1671] | 9.18 ± 0.057 |
| ATATATATAACATATACACACGTTCATATATATATA [CACACA_site4416] | 9.97 ± 0.18 |
| TCCCTAAAAAATGATAAATGGAGACAATTCCGACAA [GTGCAC_negctrl_site209] | 10.1 ± 0.18 |
| TTATATATATTTAAATTTTATCTCACATATATATAT [TGCATGCA_negctrl_site275] | 9.78 ± 0.14 |
| TATAGAAGCGTTCACACACACACATACATACCCATA [CACACA_site4915] | 10.3 ± 0.35 |

| Sequence | gcPBM binding intensity (ln) |
| --- | --- |
| AAAAAACAATCTCATACACACTAGGGATTAATTATT [CACACA_site5051] | 9.86 ± 0.042 |
| AAAAAAAAAAAAATCACACACAATATGAATTTATAG [CACACA_site601] | 9.67 ± 0.085 |
| AATACAATTTCTAGCACACAAAATATTATTATAATT [CACACA_site3223] | 10.1 ± 0.23 |
| ATATAATAGAAGTGTACACACATATTTATGTCTGTA [CACACA_site3121] | 11.5 ± 0.74 |
| AAGCATGGATATTTTACACACATTTCCACGTAACAA [CACACA_site3141] | 10.16 ± 0.085 |
| ATACATTTTTTTTATACGCACACGTCATACTTTTAA [CACACA_site1638] | 10.5 ± 0.2 |
| CTAGCAAATACATACACACACACACCGATACATATA [CACACA_site9164] | 10.04 ± 0.078 |
| ATATTTATTTATATTACACACATGTGCAATTAAACT [CACACA_site6928] | 10.1 ± 0.16 |
| TTTCTTAAAAAAAAAAAAAAAAGAAGATAAATAAAA [CACACA_negctrl_site289] | 9.55 ± 0.057 |
| TTTAACTTATTCAATGCACACATTTTAATAAGATAT [CACACA_site1967] | 9.99 ± 0.24 |
| ACAAGACAGATATATACACACATACATACATACATA [CACACA_site7472] | 10.06 ± 0.057 |
| ATATAAGTTTATATATGTACATATATATATTATATA [XGTACX_site2068] | 11.1 ± 0.66 |
| GTATTTTTTTTAATATGTACATATAAAATATTTTAT [XGTACX_site8329] | 11.3 ± 0.67 |
| AATACAATTTATAACACACACACAATAATACATATA [CACACA_site1252] | 10.1 ± 0.13 |
| GAGGATATATTATATGTACACACATATATAACGGAT [CACACA_site8361] | 11.4 ± 0.8 |
| AATTCATTTAAAAGTTGTACAAGCTTAATAAAAAAA [XGTACX_site6073] | 11.4 ± 0.91 |
| ATATACACATAAAGTAGTACACCTGAAATTTTTTTT [XGTACX_site2951] | 11.6 ± 0.79 |
| AATTAAAAATATAAATGTACATATATGTAAAACTTT [XGTACX_site123] | 11 ± 0.54 |
| CCCATGCATTTTTGCACACACATATATATATAAATA [CACACA_site1430] | 10.2 ± 0.3 |
| AATATATGAATTAGAAGTACAAATAAATATTTATTT [XGTACX_site2062] | 11.4 ± 0.93 |
| TTAATCATAAAAGTCACACATAATAAGAAAAAGCTT [CACACA_site4616] | 10.01 ± 0.035 |
| GTGCATATATGATATACACACAATATAATAGTATGT [CACACA_site2460] | 10.1 ± 0.2 |

| Sequence | gcPBM binding intensity (ln) |
| --- | --- |
| TGTAGTCTGGAGAAAAGTACATAGTATCTGATAACC [XGTACX_site2018] | 11.2 ± 0.74 |
| CCACATTTTACAGACACACACAATTTATATTACGGT [CACACA_site1894] | 10.2 ± 0.18 |
| AAAAATTTATTTTTAGGTACACAATTGAATTATTTA [XGTACX_site7008] | 11.2 ± 0.82 |
| AAGAGTTTGAAGTTTGCACACTACGTTAAAAATAAA [CACACA_site3939] | 10 ± 0.21 |
| AATATAATGTAATATACACACATATATTTCTCTTTT [CACACA_site5451] | 9.855 ± 0.064 |
| ATAATAAAAAAAAAATGTACATAAATCTAAAATCCT [XGTACX_site5823] | 11.4 ± 0.86 |
| ATATATTTAAATAAAAGTACGTAAAGGTATATTTAA [XGTACX_site8088] | 11.2 ± 0.69 |
| CCTCCCATTTTTACACGTACACATTTAAAATAGACT [XGTACX_site5640] | 11.7 ± 1.1 |
| TGAAGAAAATATTAATGTACATATTATATATATATA [XGTACX_site5497] | 11.1 ± 0.56 |
| TATTAGTCGAATGATGTACACACATACAAAACATTT [CACACA_site9331] | 11.4 ± 0.89 |
| AAAAAAAAAAAGAACTCACACATAATAATGTATATG [CACACA_site4974] | 9.755 ± 0.049 |
| TTAAAATTATATCTGTGTACATAAATTGTGTAACTA [XGTACX_site1966] | 11.3 ± 0.71 |
| TATTATAAATTAATTTTAAACTTTATTATTATGATA [GTGCAC_negctrl_site389] | 9.4 ± 0.14 |
| GTAATGTCGTCGTTTTGTACATATTTTTATAAAAAG [XGTACX_site2688] | 11.1 ± 0.57 |
| TTTTTAATGATCAGACGTACAGTTATGAAGAAATTT [XGTACX_site6394] | 11.6 ± 0.8 |
| TTGTGTCATATATTTTGTAATCAAAATAATTTTATT [TGCATGCA_negctrl_site307] | 10.1 ± 0.37 |
| TTTTTGTTTCGTTACGCATGCCAAAAGTAAAAATAT [TGCATGCA_site536] | 10.3 ± 0.28 |
| ATTTAAAAAAAAATGGCACACATTTTAATTTTATGT [CACACA_site1740] | 10.2 ± 0.16 |
| ATTAAAATAATATAAACACACATATACTTTTTTCTA [CACACA_site565] | 9.98 ± 0.16 |
| TATTGTTCGTTTAAGGTGCTATTGTTTGCAAAATAT [GTGCAC_site9412] | 10.3 ± 0.3 |
| AAGAGGTTATTACATTCACATAACATCAATATACGT [GTGCAC_negctrl_site264] | 10 ± 0.13 |
| ATAATGTTCCTATGATGTACTTATAATTATCATTTT [XGTACX_site4017] | 11.3 ± 0.76 |

| Sequence | gcPBM binding intensity (ln) |
| --- | --- |
| TGGGAAAACCCCAGAAGTACGCTTAATATAAAAAAT [XGTACX_site697] | 11.3 ± 0.78 |
| ATGCATAAAAGAAATACACACATAAATATGTAAATA [CACACA_site7087] | 9.94 ± 0.11 |
| TTTAAAACCCTAAAAAAAAAAAAAAAAAAAAAAAAA [CACACA_negctrl_site1212] | 9.72 ± 0.49 |
| GTTTGTATAGGTTCATGTACAAAAAAAAAAAAAAAA [XGTACX_site537] | 11 ± 0.83 |
| ACAAAAATATATATATGTACATATATCATCATAATA [XGTACX_site5850] | 11.1 ± 0.64 |
| TTTATTAGAACCGTACGTACATAGTTATTTTTTCAA [XGTACX_site8848] | 11.5 ± 0.83 |
| ATTCATATGTGACACACACACACACGCATAAAAAAA [CACACA_site7515] | 10.7 ± 0.53 |
| TAGCGTACATTTCATTGTAATCATAAAAAATAAAGA [CACACA_negctrl_site447] | 11.4 ± 1.2 |
| TACATATTTTTTATATGTACATATTTTTTATGTGTA [XGTACX_site442] | 11.4 ± 0.77 |
| TATGCTATAATACTCTGTACTTACTAATTTAATAAT [XGTACX_site5926] | 11.3 ± 0.76 |
| ATAAAATAAATGAAAAATGTAAAATGAGAAAAAAAT [CACACA_negctrl_site1026] | 10.07 ± 0.028 |
| TATATATATATATGGGTGCATTTTTTTGTCCATGTA [GTGCAC_site9868] | 10.7 ± 0.6 |
| ATTTATTTATATTTAGTGCAATACTATTTTTAAATA [GTGCAC_site9886] | 10.1 ± 0.23 |
| ATTTTATCATAATAAAGTACAAAGATGCAAATAATA [XGTACX_site2270] | 11.1 ± 0.67 |
| TTTTATCTCATTCATCAAAATCACCGGAATCATATA [CACACA_negctrl_site357] | 9.875 ± 0.064 |
| TAATAAACAAATTCCAAAATAAATTAAAAGGAAAAT [CACACA_negctrl_site1404] | 9.555 ± 0.035 |
| AGGTATATATTACAAGTGCACTGTAAAATTAAAATT | 10.3 ± 0.26 |
| TAAGTATACGCATACACACACACACCCAAAAAAAAA [CACACA_site425] | 10.3 ± 0.24 |
| CATTCAATTGAAAAATGTACAAAAATAAACATATGC [XGTACX_site1663] | 10.8 ± 0.35 |
| AATAGGAAGACTATTTTGTATTTGATTTTTTATTCC [GTGCAC_negctrl_site453] | 9.73 ± 0.12 |
| TAAACATACCTATACACACACACACGCACACGCACA [CACACA_site6372] | 10.3 ± 0.26 |
| TTTCTATATTGGCATACATGCAAGAACGAAAAGATT [TGCATGCA_site117] | 10.2 ± 0.29 |

— the supplement of paper PMC11417369
